Results reported in patent publication US20200148733A1 (Pieris, published 2020).
Substitutions are numbered along the chain they refer to. Where “and” joins values, the source holds several entries; their conditions need not be identical. Equal entries are not always repeated.

B1: lipocalin mutein SEQ ID NO: 5 (designed binder)
chain: ASDEEIQDVSGTWYLKAMTVDFWCSGIHEESVTPMTLTTLEGGNLEAKVTMDIEGFLQEFKAVLEKTDEPGKYTADGGKHVAYIIRSHVKDHYIFYSEGDCPGPVPGVWLVGRDPKNNLEALEDFEKAAGARGLSTESILIPRQSETSSPG
notes: Human tear lipocalin (Tlc) mutein specific for IL-17A; also called Tlc mutein
B2: lipocalin mutein SEQ ID NO: 3 (designed binder)
chain: B1 chain with E29D, E54A, F60V
notes: Human tear lipocalin mutein specific for IL-17A
B3: ABD fusion (SEQ ID NO: 41) (designed binder)
chain: ASDEEIQDVSGTWYLKAMTVDFWCSGIHEESVTPMTLTTLEGGNLEAKVTMDIEGFLQEFKAVLEKTDEPGKYTADGGKHVAYIIRSHVKDHYIFYSEGDCPGPVPGVWLVGRDPKNNLEALEDFEKAAGARGLSTESILIPRQSETSSPGSGAGGGSGGGGSQDSTSDLIPAPPLSKVPLQQNFQDNQFHGKWYVVGEAGNLLLREDKDPRKMTATIYELKEDKSYNVTRVEFGVKTYKYQIGTFVPGSQPGEFTLGGIKSMPGMTSFLVRVVSTNYNQHAMVFFKYVYQNREYFEITLYGRTKELTSELKENFIRFSKSLGLPENHIVFPVPIDQAIDGSAGAVDANSLAEAKVLANRELDKYGVSDYYKNLINNAKTVEGVKALIDEILAALP
B4: lipocalin mutein SEQ ID NO: 4 (designed binder)
chain: ASDEEIQDVSGTWYLKAMTVDFWCSGIHEESVTPMTLTTLEGGNLEAKVTMDIRGFLQEFKAVLEKTDEPGKYTADGGKHVAYIIRSHVKDHYIFYSEGDCPDSPVPGVWLVGRDPKNNLEALEDFEKAAGARGLSTESILIPRQSETSSPG
notes: as for B2
B5: lipocalin mutein SEQ ID NO: 14 (designed binder)
chain: ASDEEIQDVSGTWYLKAMTVDYGCNHPSIWSVTPMTLTTLEGGNLEAKVTMYWEGSRQEDKAVLEKTDEPGKYTADGGKHVAYIIRSHVKDHYIFYSEGICEGAPVPGVWLVGRDPKNNLEALEDFEKAAGARGLSTESILIPRQSETSSPG
notes: as for B2
B6: Tlc mutein of SEQ ID NO: 7 (negative control) (designed binder)
chain: ASDEEIQDVSGTWYLKAMTVDRECPEMNLESVTPMTLTTLEGGNLEAKVTMLISGRSQEVKAVLEKTDEPGKYTADGGKHVAYIIRSHVKDHYIFYSEGECHGKPVPGVWLVGRDPKNNLEALEDFEKAAGARGLSTESILIPRQSETSSPG
notes: Tear lipocalin based negative control

Key:
human IL-17A [1] = target: T1, human IL-17A (human, UniProt Q16552 24-155); test: cell-based or functional assay
human IL-17A [2] = target: T1, human IL-17A; test: cell-based or functional assay; remark: listed apart in the source
human IL-17F [3] = target: T2, human IL-17F (human, UniProt Q96PD4 31-163); test: solution competition ELISA, 0.5 nM SEQ ID NO: 5, plate with biotinylated hIL-17A
T2 construct: also called hIL-17F; hIL-17-F
T2 sequence (looked up): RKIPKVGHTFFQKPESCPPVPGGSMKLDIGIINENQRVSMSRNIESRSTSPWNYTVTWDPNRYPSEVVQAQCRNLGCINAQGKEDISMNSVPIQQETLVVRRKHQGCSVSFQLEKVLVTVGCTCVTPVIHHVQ
Method: (§1) In the following detailed experimental protocol, incubation and washing steps were performed as described above in the competition ELISA protocol. A 384-well plate suitable for fluorescence measurements (Greiner FLUOTRAC™ 600, black flat bottom, high-binding) was coated with 20 μl of Neutravidin at a concentration of 5 μg/ml in PBS over night at 4° C. After washing, the Neutravidin-coated wells were blocked with 100 μl blocking buffer (PBS-T/BSA) for 1h at room temperature.

mouse IL-17A [4] = target: T3, mouse IL-17A (mouse, UniProt Q62386 26-158, limits assumed); test: as above
T3 construct: also called mIL-17A
T3 sequence (looked up): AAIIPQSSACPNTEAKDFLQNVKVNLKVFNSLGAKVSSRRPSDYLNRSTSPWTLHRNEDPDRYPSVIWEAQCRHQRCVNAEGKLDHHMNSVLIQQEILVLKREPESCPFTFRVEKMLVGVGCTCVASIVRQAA
Method: as §1

human IL-6 [5] = target: T4, human IL-6 (human, UniProt P05231 30-212); test: as above
T4 construct: Negative control ligand; also called hIL-6
Method: as §1

human IL-17A [6] = target: T1, human IL-17A; test: Surface Plasmon Resonance, legend of FIG. 6A (rounded value of the measurement of the example)
Method: (§2) Residual activated groups were quenched with ethanolamine.
(§3) The binding assay was carried out with a contact time of 300 s, dissociation time of 1200 s and applying a flow rate of 30 μL/min. All measurements were performed at 25° C. […] Prior to the protein measurements three startup cycles were performed for conditioning purposes. Data were evaluated with Biacore T200 Evaluation software (V 1.0). Double referencing was used. The 1:1 Binding model was used to fit the raw data.

human IL-17A [7] = target: T1, human IL-17A; test: SPR (Biacore T200), IL-17A amine-coupled to CM5 chip, mutein in solution, 25 C, 1:1 binding model
Method: as §2, §3

human IL-17A [8] = target: T1, human IL-17A; test: SPR (Biacore T200), hIL-17A immobilized on CM5 chip, mutein injected, fit 1:1 Binding
Method: as §2, §3

human IL-17A [9] = target: T1, human IL-17A; test: competition ELISA (ECL): 0.01 nM biotinylated hIL-17A pre-incubated with varied mutein, free hIL-17A captured on coated soluble hIL-17RA (competitor)
human IL-17A [10] = target: T1, human IL-17A; test: affinity ELISA (FIG. 9), ligand coated, mutein titrated
Method: (§4) After washing, 20 μl fluorogenic HRP substrate (Quantablue, Pierce) was added to each well, and the reaction allowed to proceed for 30 minutes. The fluorescence intensity of every well on the plate was read using a Genios Plus Microplate reader (Tecan).

[11] = target: T5, human IL-17 A/F heterodimer (human, UniProt Q16552 24-155; Q96PD4 31-163); test: as above
T5 construct: Heterodimer of IL-17A and IL-17F; also called hIL-17 A/F; hIL-17 AF
Method: as §4

human IL-6 [12] = target: T4, human IL-6; test: affinity ELISA, ligand coated at 5 µg/mL, mutein titrated
Method: as §4

human IL-17A [13] = target: T1, human IL-17A; test: SPR in analogy to Example 1 (IL-17A on CM5 chip, mutein in solution)
human IL-17A [14] = target: T1, human IL-17A; test: affinity ELISA: ligand coated at 5 µg/mL, mutein titrated, HRP anti-lipocalin antibody detection
Method: as §4

[15] = target: T5, human IL-17 A/F heterodimer; test: as above
Method: as §4

cynomolgus monkey IL-17A = target: T6, cynomolgus monkey IL-17A (cynomolgus monkey, UniProt A0A2K5TTB0 24-155); test: as above
T6 construct: also called cIL-17A; cIL-17-A
Method: as §4

human IL-17A [16] = target: T1, human IL-17A; test: SPR in analogy to Example 1, hIL-17A immobilized, mutein injected, fit 1:1 Binding
human IL-17F [17] = target: T2, human IL-17F; test: Affinity ELISA: ligand coated at 5 ug/mL, mutein titrated, HRP-conjugated anti-lipocalin antibody, fluorescence
Method: as §4

mouse IL-17A [18] = target: T3, mouse IL-17A; test: as above
Method: as §4

human IL-17A [19] = target: T1, human IL-17A; test: competition ELISA (fluorescence): 0.2 nM hIL-17A pre-incubated with varied mutein, free hIL-17A captured on hIL-17RA-Fc (competitor)
Method: After washing, 20 μl fluorogenic HRP substrate (Quantablue, Pierce) was added to each well, and the reaction allowed to proceed for 30 minutes.

human IL-23 [20] = target: T7, human IL-23 (human, UniProt Q9NPF7 20-189; P29460 23-328); test: cell-based or functional assay
T7 sequence (looked up) 1: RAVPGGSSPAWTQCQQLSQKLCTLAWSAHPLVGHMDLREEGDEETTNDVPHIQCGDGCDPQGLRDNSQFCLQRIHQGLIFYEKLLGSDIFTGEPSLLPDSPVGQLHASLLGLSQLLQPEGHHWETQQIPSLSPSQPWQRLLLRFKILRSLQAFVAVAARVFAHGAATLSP
T7 sequence (looked up) 2: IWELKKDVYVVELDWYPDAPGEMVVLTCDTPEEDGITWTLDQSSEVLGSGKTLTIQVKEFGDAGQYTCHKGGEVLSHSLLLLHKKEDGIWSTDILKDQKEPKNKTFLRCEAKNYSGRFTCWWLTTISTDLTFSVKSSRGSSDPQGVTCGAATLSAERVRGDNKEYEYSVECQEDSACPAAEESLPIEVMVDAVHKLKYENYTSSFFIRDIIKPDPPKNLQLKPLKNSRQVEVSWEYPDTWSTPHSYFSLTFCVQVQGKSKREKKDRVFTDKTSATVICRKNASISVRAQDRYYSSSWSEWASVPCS

human IL-17A [21] = target: T1, human IL-17A; test: sandwich binding ELISA: hIL-17A coated, ABD fusion titrated, detection with biotinylated hIL-23; filing says the EC50 does not reflect binding affinity
human IL-17A [22] = target: T1, human IL-17A; test: SPR in analogy to Example 1, hIL-17A immobilized, mutein injected, fit 1:1 Binding; remark: listed apart in the source
human IL-17A [23] = target: T1, human IL-17A; test: as above; remark: listed apart in the source
human IL-23 [24] = target: T7, human IL-23; test: competition ELISA (fluorescence), 1.6 nM hIL-23, captured hIL-23R-Fc
human IL-17A [25] = target: T1, human IL-17A; test: competition ELISA (ECL), biotinylated hIL-17A, coated soluble hIL-17RA

T5 sequence (Q16552 24-155 limits assumed, one chain of several): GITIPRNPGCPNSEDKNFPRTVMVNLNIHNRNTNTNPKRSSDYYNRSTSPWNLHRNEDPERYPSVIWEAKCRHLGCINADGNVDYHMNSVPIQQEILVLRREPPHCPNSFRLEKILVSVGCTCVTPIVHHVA
T1 sequence (Q16552 24-155 limits assumed): as the sequence (Q16552 24-155 limits assumed, one chain of several) above
T4 sequence (P05231 30-212 limits assumed): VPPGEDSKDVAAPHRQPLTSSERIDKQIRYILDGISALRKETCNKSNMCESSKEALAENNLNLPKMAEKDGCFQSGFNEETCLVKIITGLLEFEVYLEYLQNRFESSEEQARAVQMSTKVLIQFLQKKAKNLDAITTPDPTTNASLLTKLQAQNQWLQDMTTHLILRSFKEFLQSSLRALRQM
Chain of cynomolgus monkey IL-17A (A0A2K5TTB0 entry or part of it): as the sequence (Q16552 24-155 limits assumed, one chain of several) above, with T3A, P8S, N34S, I77V, N78K, P104R counted along it

| Binder | IC50, hIL-17A-induced secretion of G-CSF in U87-MG cells (human IL-17A [1]) | KD,app (human IL-17A [10]) | KD,app [11] | binding result (human IL-6 [12]) | Kd (human IL-17A [13]) | koff (human IL-17A [13]) | kon (human IL-17A [13]) | KD,app (human IL-17A [14]) | KD,app [15] | KD,app (cynomolgus monkey IL-17A) | binding result (human IL-17F [17]) | binding result (mouse IL-17A [18]) | IC50 (human IL-17A [19]) | also measured |
| --- | --- | --- | --- | --- | --- | --- | --- | --- | --- | --- | --- | --- | --- | --- |
| B1 | 1 nM and 1.2 nM and 2 nM |  |  |  |  |  |  |  |  |  |  |  |  | EC50 [nM] AVERAGE, hIL-17A-induced secretion of G-CSF in U87-MG cells (human IL-17A [2]): 0.7 nM; EC50 [nM] Exp 1, hIL-17A-induced secretion of G-CSF in U87-MG cells (human IL-17A [2]): 0.7 nM; EC50 [nM] Exp 2, hIL-17A-induced secretion of G-CSF in U87-MG cells (human IL-17A [2]): 0.7 nM; binding result (human IL-17F [3]): no binding (tested: ligand up to 1000 nM); binding result (mouse IL-17A [4]): no binding (tested: ligand up to 1000 nM); binding result (human IL-6 [5]): no binding (tested: ligand up to 1000 nM); Kd (human IL-17A [6]): 1 nM; koff (human IL-17A [7]): 0.00032 s⁻¹; kon (human IL-17A [7]): 310000 M⁻¹ s⁻¹; koff (human IL-17A [8]): 0.000317 s⁻¹; kon (human IL-17A [8]): 311000 M⁻¹ s⁻¹; IC50 (human IL-17A [9]): 0.05 nM |
| B2 |  | ~0.8 nM | ~0.8 nM | no binding (tested: mutein up to 1000 nM) | 8.7 nM | 0.00044 s⁻¹ | 50000 M⁻¹ s⁻¹ | 0.7 nM | 0.8 nM | 0.8 nM | binds | no binding (tested: 1000 nM) | 0.15 nM | koff (human IL-17A [16]): 0.000436 s⁻¹; kon (human IL-17A [16]): 50100 M⁻¹ s⁻¹ |
| B3 | 1.2 nM |  |  |  |  |  |  |  |  |  |  |  |  | IC50 (repeat experiment), hIL-17A-induced secretion of G-CSF in U87-MG cells (human IL-17A [1]): 1.1 nM; IC50 (experiment of FIG. 19), hIL-23-induced proliferation of Ba/F3 cells expressing hIL-23R and hIL-12Rβ1 (human IL-23 [20]): 0.42 nM; IC50 (three independent experiments), hIL-23-induced proliferation of Ba/F3 cells expressing hIL-23R and hIL-12Rβ1 (human IL-23 [20]): 0.38 nM; EC50 (human IL-17A [21]): 4 nM |
| B4 |  | ~2 nM | ~2 nM | no binding (tested: mutein up to 1000 nM) | 1.6 nM |  |  | 2.4 nM | 1.8 nM | 2.6 nM | binds | no binding (tested: 1000 nM) | 0.2 nM | koff (human IL-17A [22]): 0.000625 s⁻¹; kon (human IL-17A [22]): 394000 M⁻¹ s⁻¹ |
| B5 |  |  |  | no binding (tested: mutein up to 1000 nM) | 600 nM | 0.00065 s⁻¹ | 1100 M⁻¹ s⁻¹ | 4 nM | 12.5 nM | 35.1 nM | binds |  | 33 nM | koff (human IL-17A [23]): 0.000645 s⁻¹ |
| B6 |  |  |  |  |  |  |  |  |  |  |  |  |  | binding result (human IL-23 [24]): no binding (tested: starting concentration 500 nM); binding result (human IL-17A [25]): no binding (tested: starting concentration 1000 nM) |
